Measurements published in PubChem BioAssay AID1508642 (National Center for Advancing Translational Sciences (NCATS), 2021).
Among all 43,000 compounds or so, about 200 (0.47%) were called active. About 12% were inconclusive and are not listed. The call rests on the fitted dose curve; in most records, active means well fitted cell-killing curve with a large enough effect; inconclusive means small, poorly fitted or top-dose-only effect, or effect the other way; inactive means flat fitted curve, though single readings scatter. This is one part of the list.

Assay: Cell viability qHTS assay in S16 Pmp22-F2sN cells; further: nearly all actives have a fitted effect of over 65% in size
Conditions: S16 Pmp22-F2sN Schwann cells viability, CellTiter-Glo, 24 h; series mostly up to 57.5 µM; activity change, negative = cytotoxicity: at the top concentration
Summary of the method: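 Used to flag compounds lowering reporter output through toxicity, this quantitative HTS measures ATP-based CellTiter-Glo luminescence in S16 Pmp22-F2sN Schwann cells after 24 h compound exposure at 37C.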
On the % scale 0 is the no-effect control and ±100 the full control effect.

SMILES | activity change, negative = cytotoxicity
CC(=O)c1cc(-c2ccc(F)cc2)n(CC(=O)NC2CCCCCC2)c1C | inactive: -3.9%
O=S(=O)(c1ccc(Br)cc1)c1nc(-c2ccco2)oc1SCc1ccccc1F | inactive: -2.56%
COc1ccc(NC(=O)c2ccco2)cc1NC(=O)C(C)Oc1ccc(Cl)cc1Cl (stereo unspecified) | inactive: -1.48%
CCOc1ccc(CCNC(=O)CN2C(=O)c3cccnc3Oc3ccc(C)cc32)cc1OCC | inactive: 10.1%
Cc1ccc(NC(=O)c2cn(-c3ccccc3)nc2-c2ccccc2)cc1 | inactive: -2.68%
CCCCn1c(SCC(=O)Nc2cccc(OC)c2)nc2ccsc2c1=O | inactive: -1.58%
O=C(NCc1ccccc1)c1ccc(NC(=O)N2CCSc3ncccc32)cc1 | inactive: 11.3%
COc1cc(OC)c(NC(=O)c2cnn(-c3cccc(Cl)c3C)c2C2CCN(C(=O)OC(C)(C)C)CC2)cc1Cl | inactive: -1.1%
COc1ccc(-n2cc(-c3ccccc3)c3c(NCc4cccc(Cl)c4)ncnc32)cc1 | inactive: 1.92%
COc1ccc(Nc2ncnc3onc(-c4ccc(Cl)cc4)c23)cc1Cl | inactive: -3.24%
CCOC(=O)c1c(NC(=O)COc2cccc(C)c2C)sc2c1CCCCC2 | inactive: 17.1%
CC(C)c1ccc(Nc2c(-c3ccc(N4CCOCC4)cc3)nc3ncccn23)cc1 | inactive: 0.953%
Cc1ccc(C2=NN(CC(=O)NC(C)c3ccccc3)C(=O)CC2)cc1 (stereo unspecified) | inactive: 5.93%
COc1ccc(-c2cn3nc(N4CCC(C(=O)NCc5ccc(F)cc5)CC4)sc3n2)cc1 | inactive: 9.1%
Cc1ccc(-c2ccc(=O)n(CC(=O)Nc3ccc(C(C)C)cc3)n2)cc1 | inactive: 13.6%
CCOC(=O)c1ccc(NC(=O)CSc2nc(C)c(Cc3ccccc3)c(=O)[nH]2)cc1 | inactive: -0.183%
C=CCOc1ccc(C2c3c(oc4ccc(C)cc4c3=O)C(=O)N2CCCN2CCOCC2)cc1 (stereo unspecified) | inactive: 1.39%
Cc1ccc(Cn2ccn(Cc3cccc(C(F)(F)F)c3)c(=O)c2=O)cc1 | inactive: 14.8%
COc1cccc(NC(=O)CSc2nc3c([nH]c4ccccc43)c(=O)n2-c2cccc(Cl)c2)c1 | inactive: 2.72%
O=C(Nc1ccc(F)c(Cl)c1)C1Cc2ccccc2CN1S(=O)(=O)c1ccc(F)cc1 (stereo unspecified) | inactive: 14.5%
CCc1nn(CC(=O)Nc2ccc(C)cc2C)c(=O)c2cc3sccc3n12 | inactive: -5.3%

SMILES | activity change, negative = cytotoxicity
COc1ccccc1NC(=O)c1c(C)cc(C)nc1SCC(=O)Nc1cccc(C)c1 | inactive: -3.87%
COCCNC(=O)CCn1c(=O)c2cc(OC)c(OC)cc2n(CC(=O)Nc2ccccc2OC)c1=O | inactive: -1.46%
Cc1ccc(-n2nc(C)c3c(C)cc(=O)n(CC(=O)NC(C)C)c32)cc1 | inactive: -4.51%
CCc1cccc(CC)c1N(COC)C(=O)Cn1c(C)nc2ccccc21 | inactive: -24%
Cc1ccccc1Cn1c(SCc2ccc(C(=O)NC3CCCC3)cc2)nc2ccncc21 | inactive: 9.29%
CCCSc1nc2sc3c(c2c(=O)n1-c1cccc(Br)c1)CC(C)(C)OC3 | inactive: 4.13%
CCOC(=O)c1c(C)[nH]c(C)c1S(=O)(=O)N1CCC(C(=O)Nc2ccc(C)c(Cl)c2)CC1 | inactive: 5.35%
CC(=O)Nc1ccc(Nc2ncnc3c2c(-c2ccccc2)cn3-c2ccc(C)c(Cl)c2)cc1 | inactive: -4.49%
Cc1c(NC(=O)c2ccc(Br)o2)cccc1-c1nc2ccccc2o1 | inactive: -4.02%
Cc1cccc(C)c1NC(=O)CCS(=O)(=O)c1cccc2nonc12 | inactive: -6.74%
CCOc1ccccc1NC(=O)c1cc2c(=O)n(Cc3cccnc3)ccc2nc1C | inactive: -2.9%
CCOC(=O)c1ccc(NC2=CC(c3ccc(F)cc3)N(c3ccc(C(=O)OCC)cc3)C2=O)cc1 (stereo unspecified) | inactive: 18.7%
COc1ccc(NC(=O)N2CCN3CCCCC3C2)cc1OC (stereo unspecified) | inactive: -1.28%
COc1cc(C2NC(=O)c3c(sc4c3CCN(C)C4)N2)ccc1OC(=O)c1ccccc1 (stereo unspecified) | inactive: -21.5%
COc1ccccc1CNC(=O)CCNS(=O)(=O)c1cccc2nsnc12 | inactive: 2.59%
Cc1nc2c(c(C)nn2-c2ccccc2)c(C)c1CCC(=O)NCCc1ccc(Cl)cc1 | inactive: 2.86%
COc1cccc(NC(=O)N2CCN(C(=O)c3nsc4ccccc34)CC2)c1 | inactive: 0.57%
Fc1ccc(N2CCN(Cc3cccn3-c3nnc(N4CCN(C5CCCCC5)CC4)s3)CC2)cc1 | inactive: 3.38%
CCOC(=O)c1cc(-c2ccccc2)n(-c2cccc(C(=O)N(C)c3ccc(C)cc3)c2)c1C | inactive: 3.11%
CCc1ccccc1NC(=O)c1cc2c(Cl)nc3ccccc3c2s1 | inactive: 16.1%
Cc1ccc(NC(=O)C2CCCN(c3cnccn3)C2)c(C)c1 (stereo unspecified) | inactive: 0.58%

SMILES | activity change, negative = cytotoxicity
COc1ccc(CNC(=O)C2=C(C)C(=O)OC23CCN(C(C)=O)CC3)cc1 | inactive: -3.6%
CCCCOc1ccccc1C(=O)Nc1onc2c1CCCC2 | inactive: 5.18%
CC1CCN(c2oc(-c3ccc(COc4ccc(Cl)cc4)o3)nc2C#N)CC1 | inactive: -0.954%
COc1ccc(CCNC(=O)CCCn2c(SCC(N)=O)nc3cc4c(cc3c2=O)OCO4)cc1OC | inactive: -10.5%
CCOC(=O)N1CCc2c(sc3c2c(=O)n(Cc2ccccc2)c(=O)n3Cc2ccc(C)cc2)C1 | inactive: 0.87%
CC(C)OC(=O)/C(C#N)=C/c1ccc(-c2ccc(Cl)c(Cl)c2)o1 | inactive: -0.892%
CCOc1ccccc1CNC(=O)c1ccc(Cn2c(SCc3ccccc3)nc3cccnc32)cc1 | inactive: -11.2%
Cc1cc(C)c2nc(NC(=O)c3ccc(S(=O)(=O)N4CCC(C)CC4)cc3)sc2c1 | inactive: -6.32%
CCOC(=O)c1cnc2ccc(Cl)cc2c1Nc1ccc(OCC)cc1 | inactive: 10.6%
CCOC(=O)c1ccc(NC(=O)CC2C(=O)N(c3ccc(F)cc3)C(=O)N2Cc2ccc(C)cc2)cc1 (stereo unspecified) | inactive: -27.5%
Cc1cccn2c(=O)cc(COc3cccc(NC(=O)COc4ccccc4)c3)nc12 | inactive: -9.77%
COc1cccc(-c2nc3c(c(SCC(=O)Nc4cc(C)ccc4C)n2)Cc2c(CO)cnc(C)c2O3)c1 | inactive: 16.4%
CC(=O)c1ccc(NC(=O)CCc2nc(-c3ccc(C)cc3)no2)cc1 | inactive: -13.9%
Cc1nc(-n2nc(C)c(CCC(C)C)c2C)sc1C(=O)Nc1ccc(Br)cc1 | inactive: -0.4%
Cc1cc(C)c2sc(N3CCN(C(=O)C4CC4)CC3)nc2c1 | inactive: -19.8%
CSc1ccc(CCNc2ncnc3onc(-c4ccc(Cl)cc4)c23)cc1 | inactive: -20.3%
Cc1nc2nc(SCC(=O)N(Cc3ccccc3)C(C)C)nn2c(C)c1Cc1ccccc1Cl | inactive: -20.8%
COC(=O)c1cc2occc2n1Cc1nc(-c2cccc(Br)c2)oc1C | inactive: 7.42%
COc1ccc(C(=O)c2sc(Nc3cc(Cl)ccc3C)nc2N)cc1OC | inactive: 29.5%
